# Laboratory results as given in the BET-seq Pho4 binding data (Le et al. 2018).
# The list shows a part of the results. These are noisy estimates, calculated here from bound and input reads.
# Molecular target: T1, Pho4 (S. cerevisiae) (UniProt P07270)
# T1 sequence: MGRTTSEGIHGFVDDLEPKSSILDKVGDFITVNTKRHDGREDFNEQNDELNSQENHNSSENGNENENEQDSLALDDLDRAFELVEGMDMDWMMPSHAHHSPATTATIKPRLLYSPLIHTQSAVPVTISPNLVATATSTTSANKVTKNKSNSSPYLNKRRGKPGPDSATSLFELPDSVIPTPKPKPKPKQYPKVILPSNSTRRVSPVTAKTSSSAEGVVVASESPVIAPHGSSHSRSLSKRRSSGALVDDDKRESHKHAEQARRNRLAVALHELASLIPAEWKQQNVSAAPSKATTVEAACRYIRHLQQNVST
# Assay: relative binding free energy (BET-seq); higher = weaker binding
# Conditions: reference: library average
row,Sequence,relative binding free energy
1,TAATGCACGTGTTTAG,-0.24 kcal/mol
2,GTCGGCACGTGTAATG,0.19 kcal/mol
3,CTGGGCACGTGTATGT,-0.05 kcal/mol
4,TGTGACACGTGAATAT,0.29 kcal/mol
5,ATGGTCACGTGAGCAG,0.21 kcal/mol
6,TGGAACACGTGGGGCT,-0.05 kcal/mol
7,ATTAACACGTGACGTG,0.23 kcal/mol
8,CTATGCACGTGGGTGC,-0.2 kcal/mol
9,AGGTACACGTGAGTGC,0.17 kcal/mol
10,TTACGCACGTGTTGAG,0 kcal/mol
11,CATTGCACGTGGGAGT,0.02 kcal/mol
12,TGATTCACGTGATCTG,0.17 kcal/mol
13,TTAGACACGTGGTTTT,0 kcal/mol
14,CTTTACACGTGTATTG,-0.05 kcal/mol
15,TTTGACACGTGCGTTA,0.02 kcal/mol
16,AGTTGCACGTGGTTTA,-0.11 kcal/mol
17,AGAGTCACGTGCGGTT,0.01 kcal/mol
18,TGGGCCACGTGGGCTT,-0.13 kcal/mol
19,ATGTACACGTGGTTGC,0.13 kcal/mol
20,CTTGTCACGTGAGCGT,0.18 kcal/mol
21,TTTGTCACGTGGCGTT,0.02 kcal/mol
22,ATGGCCACGTGATATG,0.03 kcal/mol
23,TGAAGCACGTGTGGGA,0.03 kcal/mol

row,Sequence,relative binding free energy
1,AGCGTCACGTGTGTGC,-0.05 kcal/mol
2,GCGTACACGTGGTGCG,0.04 kcal/mol
3,AGGGACACGTGTGTGG,0.04 kcal/mol
4,GGGATCACGTGGACGT,0.17 kcal/mol
5,TTACTCACGTGTGTTT,0.13 kcal/mol
6,GATGTCACGTGTTTCT,0.16 kcal/mol
7,GGCTTCACGTGTTAAA,0.28 kcal/mol
8,TTGGCCACGTGAGGAT,0.26 kcal/mol
9,TGGGACACGTGTTTGG,0 kcal/mol
10,TTGAACACGTGAAGTA,0.31 kcal/mol
11,GGATTCACGTGTGATA,0.24 kcal/mol
12,TTGTGCACGTGTCTTT,0.08 kcal/mol
13,GAGGGCACGTGAATTA,0.29 kcal/mol
14,GTGGGCACGTGGGGAC,-0.21 kcal/mol
15,TGGTGCACGTGGTTGG,-0.04 kcal/mol
16,GATAGCACGTGGGATA,0.02 kcal/mol
17,TCTTTCACGTGGGTGG,0.19 kcal/mol
18,GCTATCACGTGCTGGG,0.28 kcal/mol
19,AGGGACACGTGGTGTC,-0.14 kcal/mol
20,CAGTGCACGTGGATGT,0.09 kcal/mol
21,GGTGACACGTGGTAAT,0.06 kcal/mol
22,TATTTCACGTGAGGAG,0.4 kcal/mol
23,TGTTTCACGTGGCTAT,0.27 kcal/mol

row,Sequence,relative binding free energy
1,TGGCGCACGTGTATGT,-0.03 kcal/mol
2,CTGGCCACGTGTGGAG,-0.05 kcal/mol
3,GTTGGCACGTGGCGAG,-0.18 kcal/mol
4,TAATTCACGTGAGATG,0.53 kcal/mol
5,TAGTGCACGTGCGGAT,-0.03 kcal/mol
6,GGGTGCACGTGGTCAG,-0.17 kcal/mol
7,AGTATCACGTGGCATT,-0.01 kcal/mol
8,GGAGGCACGTGTGCTT,-0.08 kcal/mol
9,CAGGGCACGTGTCTGG,-0.04 kcal/mol
10,GGTGACACGTGTCAGG,0.04 kcal/mol
11,GCTAGCACGTGTTGGT,-0.09 kcal/mol
12,CTGGGCACGTGGTAGT,-0.16 kcal/mol
13,TAGTGCACGTGGAGAT,-0.02 kcal/mol
14,CTTCGCACGTGTGTGG,-0.01 kcal/mol
15,GTTTTCACGTGAGAGA,0.46 kcal/mol
16,CGTTGCACGTGTGCAG,-0.04 kcal/mol
17,ATATACACGTGGAGTT,-0.17 kcal/mol
18,GAGCGCACGTGTTGAG,0.01 kcal/mol
19,GGTGGCACGTGAATTA,0.2 kcal/mol
20,ACTTTCACGTGTGTTA,0.16 kcal/mol
21,TAATCCACGTGGTTTT,0.04 kcal/mol
22,TGCGTCACGTGTTTGC,0.09 kcal/mol
23,AAAATCACGTGGAAGG,0.24 kcal/mol

row,Sequence,relative binding free energy
1,TCGCGCACGTGAGGTT,0.06 kcal/mol
2,AATAGCACGTGAGGGT,0.09 kcal/mol
3,GTGGGCACGTGCTAAG,-0.12 kcal/mol
4,TCAGGCACGTGTATTG,-0.1 kcal/mol
5,TTAGTCACGTGCATCT,0.19 kcal/mol
6,TTGTTCACGTGTTAGC,0.33 kcal/mol
7,CTGTGCACGTGCTTGT,-0.14 kcal/mol
8,TGGATCACGTGAATCT,0.53 kcal/mol
9,GTATACACGTGAGTGA,0.27 kcal/mol
10,TTGAGCACGTGTATGA,0.03 kcal/mol
11,TAGCGCACGTGAAAAG,0.37 kcal/mol
12,CGTTCCACGTGATGTG,0.14 kcal/mol
13,GTAGGCACGTGGTATT,-0.05 kcal/mol
14,GTTATCACGTGAAGAT,0.51 kcal/mol
15,TCGGACACGTGGTGTA,-0.08 kcal/mol
16,CTAGGCACGTGTGGCG,-0.13 kcal/mol
17,GAGGACACGTGGCTGG,0.05 kcal/mol
18,TCTTTCACGTGTGATA,0.2 kcal/mol
19,GGGTCCACGTGATGAT,0.21 kcal/mol
20,AGGGTCACGTGAGGCA,0.23 kcal/mol
21,TTTTACACGTGTCGTA,0.02 kcal/mol
22,TTAGTCACGTGTTGAG,0.1 kcal/mol
23,GTATACACGTGTGATA,0.18 kcal/mol

row,Sequence,relative binding free energy
1,ACGTTCACGTGTTGCT,0.24 kcal/mol
2,ATCAGCACGTGGGGGT,-0.3 kcal/mol
3,AGTGACACGTGAAGGT,0.04 kcal/mol
4,TGTGACACGTGGACGG,-0.02 kcal/mol
5,GTGTGCACGTGTGAAG,0.13 kcal/mol
6,AGAGGCACGTGATGGC,0.08 kcal/mol
7,TATGTCACGTGGGTAT,0.01 kcal/mol
8,GTGGGCACGTGCCAGG,-0.1 kcal/mol
9,GAGTACACGTGTAGTA,0.14 kcal/mol
10,AAGGTCACGTGAAATT,0.33 kcal/mol
11,GCCTACACGTGGTGGT,0.09 kcal/mol
12,GCCGTCACGTGTGGGT,0.08 kcal/mol
13,ATGTGCACGTGCGTTA,-0.11 kcal/mol
14,CAAGTCACGTGTCGGT,0.11 kcal/mol
15,TTTTGCACGTGTGATC,0.1 kcal/mol
16,GGGGCCACGTGCGAGT,-0.16 kcal/mol
17,AATGTCACGTGTCTAG,0.12 kcal/mol
18,ATATACACGTGAGGTG,0.15 kcal/mol
19,GGAAGCACGTGAGGGT,0.12 kcal/mol
20,TCCTTCACGTGGTGGT,0.17 kcal/mol
21,CTTGACACGTGATGGC,0.31 kcal/mol
22,TAGGTCACGTGTATAT,0.16 kcal/mol
23,TTGTACACGTGAATGG,0.29 kcal/mol
